The supplement of paper PMC7125110
Variants at the floor of the assay are shown more often than the library holds them.

B1: glmS ribozyme (parent)
chain: AUAAAAGCGCCAGAACUACAGAAAUGUAGUUGACGAGGAGGAGGUUUAUCGAAUUUUCGGCGGAUGCCUCCAAA

What was measured:
Settings in all cases: with glucosamine-6-phosphate
glucosamine-6-phosphate [1] = variants of: B1; experiment: self-cleavage kobs at 40 uM GlcN6P; higher = faster cleavage; RNA array
How it was run: (§1)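 The measurements used barcoded ribozyme variants on sequenced MiSeq chips, transcribed in situ by E. coli RNA polymerase and tracked at 37 °C with a hybridised Cy3 probe. Glucosamine-6-phosphate, 40 μM to 10 mM in HEPES/KCl/Mg(OAc)2 buffer, was flowed in while tiles were imaged over ~14 h. Baseline-normalised signals, also normalised to non-cleaving reference variants, gave per-tile medians that were fit to one- or two-exponential decays for kobs. kcat and KM resulted from weighted Michaelis–Menten fits across concentrations.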

glucosamine-6-phosphate [2] = variants of: B1; experiment: self-cleavage kobs at 640 uM GlcN6P; higher = faster cleavage; RNA array
How it was run: as §1

glucosamine-6-phosphate [3] = variants of: B1; experiment: self-cleavage kobs at 160 uM GlcN6P; higher = faster cleavage; RNA array
How it was run: as §1

glucosamine-6-phosphate [4] = variants of: B1; experiment: self-cleavage kobs at 2500 uM GlcN6P; higher = faster cleavage; RNA array
How it was run: as §1

glucosamine-6-phosphate [5] = variants of: B1; experiment: self-cleavage kobs at 10000 uM GlcN6P; higher = faster cleavage; RNA array
How it was run: as §1

Variant | self-cleavage kobs at 40 uM GlcN6P (glucosamine-6-phosphate [1]) [s⁻¹] | self-cleavage kobs at 640 uM GlcN6P (glucosamine-6-phosphate [2]) [s⁻¹] | self-cleavage kobs at 160 uM GlcN6P (glucosamine-6-phosphate [3]) [s⁻¹] | self-cleavage kobs at 2500 uM GlcN6P (glucosamine-6-phosphate [4]) [s⁻¹] | self-cleavage kobs at 10000 uM GlcN6P (glucosamine-6-phosphate [5]) [s⁻¹]
AUAAAAGGGCCAGAACUACAGAAAUGUACUUGACGAGGAGGAGGUUUAUCGAAUUUUCGGCGGAUGCCUCCAAA [C8G G29C] | < 1e-05 | < 1e-05 | < 1e-05 | < 1e-05 | < 1e-05
AUAAAAGGGCCAGAACUACAGAAAUGUACUUGACGAGGAGGAGGUUUAUCGAAUUUUCGACGGAUGCCUCAAAA [C8G G29C G60A C71A] | < 1e-05 | < 1e-05 | < 1e-05 | < 1e-05 | 
AUAAAAGGGCCAGAACUACAGAAAUGUAGUUAACGAGGAGGAGGUUUAUCGAAUUUUCGGCGGAUCCCUCAAAA [C8G G32A G66C C71A] | < 1e-05 |  | < 1e-05 |  | < 1e-05
AUAAAAGGGCCAGAACUACAGAAAUGUAGUUGACGAGCAGGAGGUUUAUCGAAUUUUCGGCGGAUGCCUCCAAA [C8G G38C] | < 1e-05 | < 1e-05 | < 1e-05 | < 1e-05 | < 1e-05
AUAAAAGGGCCAGAACUACAGAAAUGUAGUUGACGAGGAGAAGGUUUAUCGAAUUUUCGGCGGAUGCCUCCAAA [C8G G41A] | < 1e-05 |  | < 1e-05 | < 1e-05 | < 1e-05
AUAAAAGGGCCAGAACUACAGAAAUGUAGGUGACGAGGAGGAGGUUUAUCGAAUUUUCGACGGAUGCCUCCAAA [C8G U30G G60A] | < 1e-05 |  |  |  | 
AUAAAAGGGCCAGAACUACAGAAAUGUAGUUGACGAGGAGGAGGGUUAUCGAAUUUUCGGCGGAUGCCUGCAAA [C8G U45G C70G] | < 1e-05 |  |  |  | < 1e-05
AUAAAAGGGCCAGAACUACAGAAAUGUAGUUGACGAGGAGGAGGUUCAUCGAAUUUUCGGCGGAUGCCUCCAAA [C8G U47C] | < 1e-05 | < 1e-05 | < 1e-05 | < 1e-05 | < 1e-05
AUAAAAGGGCCAGAACUACAGAAAUGUAGUUGACGAGGAGGAGGUUUAUCGAAUUCUCGGCGGAUGCCUCCAAA [C8G U56C] | < 1e-05 | < 1e-05 | < 1e-05 | < 1e-05 | < 1e-05
AUAAAAGUGCCGGAACUACAGAAAUGUAGUUGACGAGGAGGAGGUUUUUCGACUUUUCGGCGAAUGCCUCCAAA [C8U A12G A48U A53C G63A] | < 1e-05 |  |  |  | 
AUAAAAGUGCCAGGACUACAGAAAUGUAGUUGACGAGGAGGCGGUUUAUCGAAUUUUCGGCGGAUGCCUCCAAA [C8U A14G A42C] | < 1e-05 |  | < 1e-05 | < 1e-05 | 
AUAAAAGUGCCAGAACUACAGAAAUGUAGUUGCCGAGGAGGAGGUUUAUCGAAUUUUCGGCGGAUGCCUCCAAA [C8U A33C] | < 1e-05 | < 1e-05 | < 1e-05 | < 1e-05 | < 1e-05
AUAAAAGUGCCAGAACUACAGAAAUGUAGUUGUCGGGGAGGAGGUUUAGCGAAUUUUCGGCGGAGGCCUCGAAA [C8U A33U A36G U49G U65G C71G] | < 1e-05 |  |  |  | 
AUAAAAGUGCCAGAACUACAGAAAUGUAGUUGUCGAGGAGGAGGUUUAUCGGAUUUUCGGCGGAUGCCUCCAAA [C8U A33U A52G] | < 1e-05 |  |  |  | < 1e-05
AUAAAAGUGCCAGAACUACAGAAAUGUAGUUGACGAGGAGGAGGUUUAUCGAUUUUUCGGCGGAUGCCUCCAAA [C8U A53U] | < 1e-05 | < 1e-05 |  |  | < 1e-05
AUAAAAGUGCCAGAACUACAGAAAUGUAGUUGACGAGGAGGAGGUUUAUCGAUUUUUCGUCGGAUGCCUCCAAA [C8U A53U G60U] | < 1e-05 |  |  |  | 
AUAAAAGUGACAGAACUACAGAAAUGUAGUUGACGAGGAGGAGGUUUAUCGAAUUUUCGGCGGCUGCCUCCAAA [C8U C10A A64C] | < 1e-05 | < 1e-05 | < 1e-05 |  | 
AUAAAAGUGCGAGAACUACAGAAAUGUAGUUGACGAGGAGGAGGUUUAUCGAAUUUUCGGCGGAUGUCUCCAAA [C8U C11G C67U] | < 1e-05 |  |  |  | 
AUAAAAGUGCUAUAACUACAGAAAUGUAGUUGACGAGGAGGAGGUUUAUCGAAUUUUCGGCGGAUGCCUCUAAA [C8U C11U G13U C71U] | < 1e-05 |  |  | < 1e-05 | < 1e-05
AUAAAAGUGCCAGAAAUACAGAAAUGUAGUUGACGAGGAGGAGGUUUAUCGAAUUUUCGGCGGAUGCCUCCAAA [C8U C16A] | < 1e-05 |  |  |  | 
AUAAAAGUGCCAGAACUACAGAAAUGUAGUUGACGAGGAGGAGGUUUAUCGAAUUUUCGGCGGAUGUCUCCAAA [C8U C67U] | < 1e-05 | < 1e-05 | < 1e-05 | < 1e-05 | 
AUAAAAGUGCCAGAACUACAGAAAUGUAGUUGACGAAGAGGAGGUUUAUCGAAUUUUCGGCGGAUGCCUCCAAA [C8U G37A] | < 1e-05 |  |  |  | < 1e-05
AUAAAAGUGCCAGAACUACAGAAAUGUAGUUGACGAGCAGGAGGUUUAUCGAAUUUUCGGCGGAUGCCUCCAAA [C8U G38C] | < 1e-05 | < 1e-05 | < 1e-05 |  | < 1e-05
AUAAAAGUGCCAGAACUACAGAAAUGUAGUUGACGAGGAUGAGGUUUAUCGAAUUUUCGGAAGAUGCCUCCAAA [C8U G40U C61A G62A] | < 1e-05 |  |  |  | 
AUAAAAGUGCCAGAACUACAGAAAUGUAGUUGACGAGGAGAAGGUUUAUCGAAUUUUCCGCGGAUGCCUCCAAA [C8U G41A G59C] | < 1e-05 |  |  |  | 
AUAAAAGUGCCAGAACUACAGAAAUGUAGUUGACGAGGAGGAGAUUUAUCGAAUUUUCGGCGGAUGCCUCCAAA [C8U G44A] | < 1e-05 | < 1e-05 | < 1e-05 | < 1e-05 | 
